Consider 73 sequences from the BET-seq Pho4 binding data (Le et al. 2018).

The other results are listed elsewhere or left out. The energies were worked out here from pooled read counts, against the library average; single values are noisy.

This experiment addresses T1, Pho4 (S. cerevisiae) (UniProt P07270).
T1 sequence: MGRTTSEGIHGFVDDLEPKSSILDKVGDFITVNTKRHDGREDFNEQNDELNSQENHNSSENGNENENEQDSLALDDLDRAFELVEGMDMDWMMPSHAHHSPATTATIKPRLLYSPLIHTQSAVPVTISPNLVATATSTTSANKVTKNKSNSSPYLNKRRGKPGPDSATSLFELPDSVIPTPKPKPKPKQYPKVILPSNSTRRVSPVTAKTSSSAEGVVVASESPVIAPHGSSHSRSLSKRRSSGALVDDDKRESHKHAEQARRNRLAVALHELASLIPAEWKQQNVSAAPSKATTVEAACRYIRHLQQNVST
In words: relative binding free energy (BET-seq); higher = weaker binding. The note with it: reference: library average.
In the case of TGTCGCACGTGGTCGG, the “relative binding free energy” value was -0.15 kcal/mol. Consider TTGTCCACGTGATTGT, for which the “relative binding free energy” value worked out at 0.19 kcal/mol.

In the case of TGTGTCACGTGGTAGT, the “relative binding free energy” value came to 0.05 kcal/mol.

Consider TCGGGCACGTGTGTGT, for which the “relative binding free energy” value was -0.06 kcal/mol. The result for CGGTTCACGTGCGTAT reads 0.26 kcal/mol.

Regarding TATTACACGTGATATG, the “relative binding free energy” value turned out to be 0.21 kcal/mol. Take AATCTCACGTGGTGGG: the “relative binding free energy” value amounted to 0.23 kcal/mol. The result for AGTTTCACGTGCAATT reads 0.33 kcal/mol; that for GTATTCACGTGTTTAA, 0.26 kcal/mol. The result for TGTTGCACGTGCCAGG reads -0.04 kcal/mol; that for AGGCACACGTGAGTGG, 0.16 kcal/mol; that for AAATTCACGTGTTTTC, 0.36 kcal/mol. To TTTATCACGTGGGCAG belongs -0.01 kcal/mol. For GTATCCACGTGGTTTA, the “relative binding free energy” value stood at 0.17 kcal/mol. As for ATACGCACGTGTGGTA, the “relative binding free energy” value was -0.05 kcal/mol. With CTTGGCACGTGTAGGA, the “relative binding free energy” value was -0.02 kcal/mol. To GTGTTCACGTGGTGGT belongs 0.29 kcal/mol. Take GGGATCACGTGGGGAT: the “relative binding free energy” value worked out at 0.1 kcal/mol.

Turning to GCTGGCACGTGTGTTA, the “relative binding free energy” value came to 0.06 kcal/mol. With TTATGCACGTGAGTCT, the “relative binding free energy” value is 0.22 kcal/mol. As to TAAGTCACGTGTGAGA, the “relative binding free energy” value came to 0.32 kcal/mol. For the sequence GGAGGCACGTGGGTGG, the “relative binding free energy” value is -0.11 kcal/mol.

As to TAGTACACGTGTTTAG, the “relative binding free energy” value was -0.08 kcal/mol. The result for GTGTGCACGTGAAGGA reads 0.23 kcal/mol. For the sequence GTGACCACGTGCGGGG, the “relative binding free energy” value was -0.16 kcal/mol. Regarding AGGAACACGTGGGCGT, the “relative binding free energy” value was -0.1 kcal/mol.

For the sequence ATGATCACGTGGGGCT, the “relative binding free energy” value is -0.02 kcal/mol. The result for GATGTCACGTGAGTGG reads 0.3 kcal/mol.

On to TTGGACACGTGGAGTT, for which the “relative binding free energy” value was found to be 0.16 kcal/mol. Turning to GCGGACACGTGATGTT, the “relative binding free energy” value is 0.39 kcal/mol. The result for GGCATCACGTGTGGGC reads 0.31 kcal/mol; that for GTTGTCACGTGACAGT, 0.2 kcal/mol. The result for TTAATCACGTGCGAGG reads 0.17 kcal/mol; that for CGGGTCACGTGCGTTG, 0.07 kcal/mol.

As to CGGTACACGTGGTGGG, the “relative binding free energy” value was 0.01 kcal/mol. The result for GGGATCACGTGTTGAT reads 0.22 kcal/mol; that for TATGTCACGTGGGAAG, 0.05 kcal/mol; that for GGGTACACGTGGAGGC, 0.14 kcal/mol. The result for GGCAGCACGTGGAGCG reads 0.01 kcal/mol; that for CTAGTCACGTGCGTTT, 0.12 kcal/mol. To GCTAGCACGTGGGGGT belongs -0.21 kcal/mol. Regarding CTGGACACGTGAGGGA, the “relative binding free energy” value was 0.18 kcal/mol. The result for TATTACACGTGCATGG reads 0.08 kcal/mol; that for ATGGTCACGTGTAATT, 0.14 kcal/mol. Consider TCGTTCACGTGGATGG, for which the “relative binding free energy” value came out at 0.29 kcal/mol. Turning to AGTGTCACGTGGAAAA, the “relative binding free energy” value was 0.27 kcal/mol. To TTAGCCACGTGGTGAG belongs -0.18 kcal/mol.

For TTCTTCACGTGTTTTA, the “relative binding free energy” value worked out at 0.22 kcal/mol. For the sequence CGGGGCACGTGAGTTT, the “relative binding free energy” value came to 0.09 kcal/mol. For the sequence GAGGGCACGTGGAAGC, the “relative binding free energy” value is 0.09 kcal/mol. In the case of AGTATCACGTGGCAGT, the “relative binding free energy” value came to 0.16 kcal/mol. With ATAGTCACGTGGTCAA, the “relative binding free energy” value came out at 0.04 kcal/mol. The result for TTATACACGTGGTTTT reads 0.03 kcal/mol.

Take AGTAACACGTGTTTAT: the “relative binding free energy” value was -0.11 kcal/mol. TCTGGCACGTGGGTTA: the “relative binding free energy” value is -0.14 kcal/mol. To TATCACACGTGGGTGT belongs -0.15 kcal/mol.

For the sequence AGTGTCACGTGAATAG, the “relative binding free energy” value amounted to 0.22 kcal/mol. The result for ATGTTCACGTGGATAG reads 0.17 kcal/mol; that for ATAGTCACGTGTCGGG, 0.2 kcal/mol; that for GATTGCACGTGTAGGT, 0.07 kcal/mol. To TTTATCACGTGAATGT belongs 0.39 kcal/mol. The result for GTGGTCACGTGCTCTG reads -0.05 kcal/mol; that for TCTTGCACGTGGTGTA, -0.08 kcal/mol; that for AAGGTCACGTGTGATA, 0.18 kcal/mol. As to CTCGGCACGTGGTTTT, the “relative binding free energy” value was -0.12 kcal/mol. The result for TGAGTCACGTGCTGTG reads 0.08 kcal/mol. The result for TTTTACACGTGATTTC reads 0.17 kcal/mol. To GTTTGCACGTGTTTTG belongs 0.13 kcal/mol; to TTAAACACGTGTCTGG, 0.04 kcal/mol. CAATTCACGTGTGTGG: the “relative binding free energy” value turned out to be 0.37 kcal/mol.

As to GTGTTCACGTGGAAGT, the “relative binding free energy” value was found to be 0.39 kcal/mol. To GGGAACACGTGAATTG belongs 0.31 kcal/mol; to ATCATCACGTGGAAGG, 0.16 kcal/mol.
